The whole screen tested about 280,000 compounds, of which about 100 (0.036%) were called active. The shares of active, inactive and inconclusive entries below differ from those in the screen. Calls follow the shape of the dose curve; as a rule, active = well fitted inhibition curve with a large enough effect in the signal ratio, with a control signal flat (not every such curve was filed as active); inconclusive = small, poorly fitted or top-dose-only effect, or effect the other way, or a change in a side signal; inactive = no such curve, though single readings can be large or run the other way; the % refers to the signal ratio. Where the call is inconclusive, the potency comes from a doubtful curve fit. A note “side channel” means that the fit belongs to a control or component signal, not to the main read-out.
What follows are compounds tested against Muscleblind-like protein 1 (Homo sapiens) (UniProt Q9NR56) (assay: qHTS Assay for Inhibitors of MBNL1-poly(CUG) RNA binding). Conditions: TR-FRET MBNL1-His/biotin-(CUG)12 binding, 665/545 ratio; activity change, negative = inhibition: at 57.5 µM (top of the series).
Outline: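 Compound titration spanned 92 nM–58 uM against the MBNL1-His/biotin-(CUG)12 complex. After 60 min at room temperature with 5 nM streptavidin-XL665 and 0.055 ng/ul terbium anti-His, ratiometric 665/545 nm emission (Ex 340 nm) normalized to controls.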
% is scaled to controls: 0 for no effect and ±100 for the full control effect; potency is read from the fitted curve at half-maximal effect; tags tell the direction and shape of the fitted curve or compound fluorescence and quenching.

UniProt Q9NR56, sequence (Q9NR56 whole entry, looked up): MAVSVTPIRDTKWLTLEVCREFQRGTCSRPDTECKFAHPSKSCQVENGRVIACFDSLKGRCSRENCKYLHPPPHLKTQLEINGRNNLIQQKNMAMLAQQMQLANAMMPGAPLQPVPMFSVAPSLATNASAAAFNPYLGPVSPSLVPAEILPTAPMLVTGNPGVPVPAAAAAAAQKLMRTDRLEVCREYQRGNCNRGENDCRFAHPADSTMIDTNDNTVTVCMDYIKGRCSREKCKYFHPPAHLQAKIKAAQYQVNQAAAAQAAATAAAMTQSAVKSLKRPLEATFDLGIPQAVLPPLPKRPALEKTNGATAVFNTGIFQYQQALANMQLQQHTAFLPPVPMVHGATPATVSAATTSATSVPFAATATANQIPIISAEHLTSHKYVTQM

Row | Structure (SMILES) | Potency | activity change, negative = inhibition
1 | CCOC(=O)c1cc([N+](=O)[O-])c([N+](=O)[O-])cc1NC(C)=O | inconclusive: 28.2 µM [quencher, side channel, partial curve] | 
2 | COc1ccc2cc3c(N)nn(C(=O)c4ccccc4Cl)c3nc2c1 | inconclusive: 10 µM [quencher, side channel, partial curve] | 
3 | CC(=O)NS(=O)(=O)c1cccnc1Nc1cccc(Cl)c1C |  | inactive: -5.56% [at 11.5 µM]
4 | CC(C)(C)C(=O)COC(=O)c1ccc2c(c1)C(=O)N(Cc1ccco1)C2=O | inconclusive: 10 µM [quencher, side channel, partial curve] | 
5 | O=C(c1ccc(Cl)c(S(=O)(=O)N2CCCCC2)c1)N1CCCC1 | inconclusive: 0.1 µM [quencher, side channel, full curve, poor fit] | 
6 | COC(=O)c1ccc(NC(=O)C23CC4CC(C2)CC(n2cnc(Cl)n2)(C4)C3)cc1 | inconclusive: 1 µM [fluorescent, side channel, full curve, poor fit] | 
7 | CCOC(=O)c1c(N)sn(-c2ccccc2C)c1=S | inconclusive: 22.4 µM [quencher, side channel, single point] | 
8 | Cc1ccc(NC(=O)c2cc([N+](=O)[O-])ccc2N2CCOCC2)cc1S(=O)(=O)N1CCOCC1 | inconclusive: 14.1 µM [quencher, side channel, partial curve] | 
9 | CN(C)/C=N/c1sc2c(c1C#N)CCC2 | inconclusive: 31.6 µM [quencher, side channel, single point] | 
10 | Cc1ccccc1OCCn1cc(/C=C(\C#N)C(=O)NCc2ccco2)c2ccccc21 | inactive | 
11 | COC/C=C/C1=CC2=CC(=O)C(C)(OC(=O)c3cnc4ccccc4n3)C(=O)C2=CN1c1ccc(CO)cc1 (configuration not stated) | inactive | 
12 | O=C(Oc1c(Cl)cc(Cl)c2ccccc12)N1CCCC1 | inactive | 
13 | CCN(CC)CCNC(=O)c1ccc(Cl)c(S(=O)(=O)Nc2ccccc2OC)c1 | inactive | 
14 | Clc1ccc(/C=N/Nc2nnc(Cl)c3ccccc23)cc1 | inconclusive: 6.31 µM [quencher, side channel, single point] | 
15 | CC1(C)Cc2c(c(-c3ccco3)nc3n[nH]c(N)c23)CO1 | inconclusive: 25.1 µM [quencher, side channel, single point] | 
16 | CCOC(=O)/C=C(\C)Sc1cc(O)c2ccccc2c1O | inconclusive: 25.1 µM [quencher, side channel, partial curve] | 
17 | O=C(COc1ccccc1)N1CCN(c2ccc([N+](=O)[O-])c(N3CCCCC3)c2)CC1 | inconclusive: 15.8 µM [quencher, side channel, partial curve] | 
